Consider four molecules from article PMC12396302.

Protein sequences, listed by entry. Tags and fused reporters are not part of them.
UniProt P67809: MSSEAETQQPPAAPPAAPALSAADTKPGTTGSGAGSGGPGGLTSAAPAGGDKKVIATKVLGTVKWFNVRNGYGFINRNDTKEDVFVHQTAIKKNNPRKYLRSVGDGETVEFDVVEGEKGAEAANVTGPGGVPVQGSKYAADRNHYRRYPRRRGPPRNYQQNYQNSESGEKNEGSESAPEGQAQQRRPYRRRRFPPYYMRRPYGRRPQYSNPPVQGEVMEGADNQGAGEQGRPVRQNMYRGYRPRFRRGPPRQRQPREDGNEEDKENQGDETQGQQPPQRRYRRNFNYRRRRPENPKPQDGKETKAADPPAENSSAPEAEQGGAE

The target of one test is T1, GST-Menin (UniProt O00255).
T1 sequence: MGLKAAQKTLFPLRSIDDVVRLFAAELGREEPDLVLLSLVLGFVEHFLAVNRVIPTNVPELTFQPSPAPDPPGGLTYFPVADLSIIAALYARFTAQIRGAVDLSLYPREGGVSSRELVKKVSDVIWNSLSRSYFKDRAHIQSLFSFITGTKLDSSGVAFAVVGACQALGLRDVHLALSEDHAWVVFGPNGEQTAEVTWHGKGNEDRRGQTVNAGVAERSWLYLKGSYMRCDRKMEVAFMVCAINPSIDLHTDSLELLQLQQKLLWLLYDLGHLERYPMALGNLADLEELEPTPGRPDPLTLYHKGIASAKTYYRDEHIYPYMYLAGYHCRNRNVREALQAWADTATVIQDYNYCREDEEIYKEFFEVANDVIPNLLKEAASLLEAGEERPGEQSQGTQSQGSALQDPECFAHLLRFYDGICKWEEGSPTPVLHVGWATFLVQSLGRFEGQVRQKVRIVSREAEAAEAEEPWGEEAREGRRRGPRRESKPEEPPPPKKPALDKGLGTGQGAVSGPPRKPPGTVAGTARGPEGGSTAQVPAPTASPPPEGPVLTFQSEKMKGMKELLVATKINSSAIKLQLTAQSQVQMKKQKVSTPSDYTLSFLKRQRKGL
Nature of the test: pull-down; GST pull-down in vitro; purified GST-Menin or GST alone with HIS-YBX1; blots probed with anti-HIS and anti-GST; both purified.

The next test has as its target T2, FLAG-tagged Menin (UniProt O00255).
T2 sequence: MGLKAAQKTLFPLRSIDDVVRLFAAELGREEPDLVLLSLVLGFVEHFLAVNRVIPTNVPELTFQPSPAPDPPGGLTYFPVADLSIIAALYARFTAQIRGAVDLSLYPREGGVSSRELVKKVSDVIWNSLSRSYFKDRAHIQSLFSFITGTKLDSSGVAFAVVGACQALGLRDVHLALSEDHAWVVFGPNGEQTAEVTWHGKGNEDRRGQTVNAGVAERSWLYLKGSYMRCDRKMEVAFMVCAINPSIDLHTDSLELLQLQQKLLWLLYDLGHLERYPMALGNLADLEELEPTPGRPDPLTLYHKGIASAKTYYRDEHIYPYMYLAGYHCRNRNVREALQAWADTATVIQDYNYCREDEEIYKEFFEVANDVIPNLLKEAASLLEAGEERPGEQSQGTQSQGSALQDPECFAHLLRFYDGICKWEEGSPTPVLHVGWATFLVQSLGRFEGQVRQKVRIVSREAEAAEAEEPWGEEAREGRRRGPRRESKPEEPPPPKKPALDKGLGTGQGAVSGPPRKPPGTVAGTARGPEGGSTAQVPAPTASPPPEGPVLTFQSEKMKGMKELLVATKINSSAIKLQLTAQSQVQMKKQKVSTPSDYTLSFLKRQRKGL
Put plainly: co-IP; FLAG immunoprecipitation of nuclear extracts of PL45 and BxPC-3 cells; LaminB1 as input control.

In test [1] the target is T3, Menin (human (endogenous in PL45 and Bx-PC3)) (UniProt O00255).
T3 sequence: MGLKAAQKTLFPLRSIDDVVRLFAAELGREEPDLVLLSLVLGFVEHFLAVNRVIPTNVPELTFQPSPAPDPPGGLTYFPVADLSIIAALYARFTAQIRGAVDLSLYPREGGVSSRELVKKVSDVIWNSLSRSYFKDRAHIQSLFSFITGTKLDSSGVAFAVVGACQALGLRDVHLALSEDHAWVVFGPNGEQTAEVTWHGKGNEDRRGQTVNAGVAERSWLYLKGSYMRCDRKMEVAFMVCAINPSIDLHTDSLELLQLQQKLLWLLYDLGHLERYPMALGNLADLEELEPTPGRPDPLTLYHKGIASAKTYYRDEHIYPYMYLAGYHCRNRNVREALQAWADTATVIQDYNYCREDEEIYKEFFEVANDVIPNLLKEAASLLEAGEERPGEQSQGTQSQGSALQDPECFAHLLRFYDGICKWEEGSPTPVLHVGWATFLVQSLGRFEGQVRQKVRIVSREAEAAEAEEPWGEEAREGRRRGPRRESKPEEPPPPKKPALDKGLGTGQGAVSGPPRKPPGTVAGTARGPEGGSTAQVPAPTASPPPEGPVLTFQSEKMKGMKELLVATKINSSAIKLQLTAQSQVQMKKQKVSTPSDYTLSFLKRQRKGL
Nature of the test: co-IP; PL45 and Bx-PC3 cell lysates; beads pre-bound with 5 μg of Menin or YBX1 antibody, overnight at 4°C; IgG as negative control.

In test [2] the target is T4, GST-tagged Menin N-terminal fragment (1-210 aa) (UniProt O00255).
T4 sequence: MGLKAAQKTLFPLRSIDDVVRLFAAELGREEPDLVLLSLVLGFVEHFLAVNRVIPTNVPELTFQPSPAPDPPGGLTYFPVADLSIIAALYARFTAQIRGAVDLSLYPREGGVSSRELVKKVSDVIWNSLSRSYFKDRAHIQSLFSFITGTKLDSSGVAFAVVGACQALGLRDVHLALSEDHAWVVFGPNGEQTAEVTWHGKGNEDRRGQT
Put plainly: pull-down; GST pull-down; GST-tagged Menin truncation mutants with HA-YBX1; blots probed with anti-GST and anti-HA.

Test [3] concerns the target Y-box binding protein 1 (YBX1) (human (endogenous in PL45 and Bx-PC3)) (UniProt P67809). Put plainly: co-IP; PL45 and Bx-PC3 cell lysates; beads pre-bound with 5 μg of Menin or YBX1 antibody, overnight at 4°C; IgG as negative control.

These are yes or no findings as the source states them, for the method shown. For some assays here: In cells and extracts the contact can be indirect. Some results given as binding are weak or reduced against the parent protein; the word gives no strength. For some assays here: Tags and fused reporters may be left off the sequences shown.

With HIS-YBX1 (from UniProt P67809 1-324), the binding entry in the test with GST-Menin is given as “binds”. In the case of “Y-box binding protein 1 (YBX1) (from UniProt P67809 1-324)”, the binding result (with FLAG-tagged Menin; in test [1]) was “binds” in each case. In the case of HA-YBX1 (from UniProt P67809 1-324), the binding entry in test [2] is “no binding”.

B1: Menin (protein, UniProt O00255 1-610)
chain: MGLKAAQKTLFPLRSIDDVVRLFAAELGREEPDLVLLSLVLGFVEHFLAVNRVIPTNVPELTFQPSPAPDPPGGLTYFPVADLSIIAALYARFTAQIRGAVDLSLYPREGGVSSRELVKKVSDVIWNSLSRSYFKDRAHIQSLFSFITGTKLDSSGVAFAVVGACQALGLRDVHLALSEDHAWVVFGPNGEQTAEVTWHGKGNEDRRGQTVNAGVAERSWLYLKGSYMRCDRKMEVAFMVCAINPSIDLHTDSLELLQLQQKLLWLLYDLGHLERYPMALGNLADLEELEPTPGRPDPLTLYHKGIASAKTYYRDEHIYPYMYLAGYHCRNRNVREALQAWADTATVIQDYNYCREDEEIYKEFFEVANDVIPNLLKEAASLLEAGEERPGEQSQGTQSQGSALQDPECFAHLLRFYDGICKWEEGSPTPVLHVGWATFLVQSLGRFEGQVRQKVRIVSREAEAAEAEEPWGEEAREGRRRGPRRESKPEEPPPPKKPALDKGLGTGQGAVSGPPRKPPGTVAGTARGPEGGSTAQVPAPTASPPPEGPVLTFQSEKMKGMKELLVATKINSSAIKLQLTAQSQVQMKKQKVSTPSDYTLSFLKRQRKGL
Consider B1, for which, in test [3], the binding entry was “binds”.
